About 540 (0.36%) of roughly 150,000 compounds showed an effect of 50% or more. The list shows a part of the results.
These molecules were tested on Plasmodium falciparum (assay: Primary screen in NF54 nanoGlo assay, in single point, at 2uM, 72h; a lower Z score goes with more inhibition). Conditions: timepoint 72 hour.
Format: functional, Erythrocyte

Row | Compound | % Inhibition [%] | Z score
1 | Cc1c(-c2noc(C(=O)N3CCCCCC3)n2)oc2ccccc12 | -17 | 2.05
2 | O=C(NCCN1CCCC[C@@H]1CO)c1cn(Cc2ccc(Cl)cc2)nn1 | 11 | -1.43
3 | O=C1[C@@H]2CCCN2C(=O)N1C1CCN(Cc2ccccn2)CC1 | -7 | 1.44
4 | O=C(C1CC2C=CC1C2)N1CCC(c2nc3ccccc3s2)CC1 (stereo unspecified) | -15 | 2.05
5 | COC[C@H]1CCCN1C(=O)C[C@@H]1CCN2C[C@@H]1CCCOc1ccc(N(C)CCc3ccccn3)cc1CNCC2=O | 14 | -1.63
6 | CCc1nc(CCN[C@H]2CCN(CC(F)(F)F)C2)sc1C | -5 | 0.7
7 | CC(NC1CCS(=O)(=O)C1)c1cccc(OCc2ccccc2)c1 (stereo unspecified) | 2 | -0.39
8 | O=C(NCc1ccc2c(c1)OCO2)c1nnc(-c2ccncc2)o1 | -2 | 0.28
9 | O=C(Cn1ccc(=O)cc1)N1CCN(Cc2ccccc2)C(=O)C1 | -11 | 1.49
10 | CN(CCC(C)(C)O)Cc1ccc(C#CCO)s1 | -1 | 0.14
11 | CCCNC(=O)c1ccc(-c2cc(Cl)c3c(c2)C[C@H](CN)O3)s1 | -6 | 0.82
12 | CS(=O)(=O)c1cccc(OCCN2CCC[C@H]2c2ccc[nH]2)c1 | -4 | 0.57
13 | COc1cccc(N2CCN(C3CCN(Cc4cccs4)CC3)CC2)c1 | -1 | 0.12
14 | Cc1nc(CCC(=O)N2CCN(c3ccc(Cl)c(Cl)c3)CC2)n[nH]1 | 3 | -0.42
15 | C[C@H](NCCc1nccn1Cc1ccccc1)c1cccc(O)c1 | -4 | 0.61
16 | CCC[C@H]1CN(C(=O)c2n[nH]c3ccc(OC)cc23)C[C@@H]1NC(C)=O | -4 | 0.8
17 | CCOc1ccccc1C(=O)NCC(=O)NC[C@H]1CC2c3ccccc3C1c1ccccc12 | 0 | -0.02
18 | CC(=O)N1CCCN(c2nc3c(s2)c(C)nn3-c2ccc(C)cc2)CC1 | 4 | -0.71
19 | OCc1csc(N2CCC[C@@](CO)(CCc3ccccc3)C2)n1 | -1 | 0.23
20 | O=C(NCCc1ccccc1C(F)(F)F)c1cc(CN2CCC[C@H](O)C2)on1 | -6 | 1.18
21 | CC1Cc2ccccc2N1C(=O)C1CCCN(C(N)=O)C1 (stereo unspecified) | -14 | 2.31
22 | COCC[C@](C)(O)CNC(=O)c1snnc1C | 8 | -0.9
23 | COc1ccc(CNc2cccc(C(=O)NC3CC3)c2)c(OC)c1 | -4 | 0.4
24 | Cn1ccn2ncc(C(=O)NC[C@H]3CCN(Cc4ccco4)C3)c12 | -9 | 1.27
25 | CC[C@H](NC(=O)Cn1cccnc1=O)c1nccs1 | 3 | -0.43
26 | CC(C)(NS(C)(=O)=O)C(=O)NC[C@H]1CC[C@H](c2ccccc2)O1 | -4 | 0.58
27 | O=C(N[C@H]1CC(=O)N(Cc2cccc3ccccc23)C1)C1CCOCC1 | -15 | 1.32

Row | Compound | % Inhibition [%] | Z score
28 | O=C(O)[C@H]1CC[C@@H](C(=O)NC(Cc2ccccc2)c2ccccc2)C1 (stereo partly specified) | 32 | -3.63
29 | CCCN1CCC(CC(=O)N[C@@H](C)[C@H](O)c2ccc(O)cc2)CC1 | -9 | 1.55
30 | Cc1cccc(CN(Cc2cccc(C)n2)c2ncc(Br)cn2)n1 | 1 | -0.08
31 | CC(C)(CNC(=O)[C@@H]1COCCO1)c1ccc(F)cc1Cl | -7 | 0.89
32 | CCOC(=O)C(C)NC(=O)C1CCCC(C(=O)NC(C)C(=O)OCC)C1 (stereo unspecified) | -6 | 1
33 | CC(C)c1nnsc1Cn1ccnc1-c1cc2n(n1)CCCNC2 | 13 | -1.77
34 | NS(=O)(=O)c1ccc(NC(=O)N2CC(Oc3ccccc3)C2)cc1 | -3 | 0.4
35 | CC1CCC(NC(=O)Cn2ccnc2)CC1 (stereo unspecified) | 0 | 0.03
36 | O=C(CCc1cn(-c2ccccc2)nc1-c1ccc2c(c1)OCO2)NC[C@H]1CCCO1 | 0 | 0.04
37 | CNC(=O)C1CN(C(=O)c2ccnc(-c3ccco3)c2)C1 | 15 | -1.74
38 | OCCN(CCn1ccnc1)Cc1ccco1 | -8 | 1.03
39 | COCCn1ccc(NC(=O)N2CCC[C@](C)(c3ccccc3)C2)n1 | -14 | 1.79
40 | CC(C)c1cc([C@@H]2CCCN2C(=O)NC2CCCC2)on1 | -9 | 1.26
41 | Cc1ccc(C)c(N2CCN(C(=O)c3cc(C(=O)N4CCN(c5cc(C)ccc5C)CC4)cc(C(=O)N4CCN(c5cc(C)ccc5C)CC4)c3)CC2)c1 | -31 | 3.63
42 | CCOC(=O)C1CCN(Cc2ccccc2)CC1c1ccccc1 (stereo unspecified) | -14 | 1.21
43 | Cc1ccc(Oc2nc3ccccc3n3c(=O)n(CC(=O)Nc4c(C)cccc4C)nc23)cc1 | -4 | 0.63
44 | c1coc(-c2cc(-c3nc(-c4ccncc4)no3)n[nH]2)c1 | -5 | 0.65
45 | COc1ccc(C(=O)N2CCC[C@@]3(C2)NC(=O)N(Cc2ccc(C)cc2)C3=O)cc1OC | -13 | 2.28
46 | CNC(=O)C(NCCOC1CCCCO1)C(C)C (stereo unspecified) | -11 | 2.02
47 | CO[C@H]1C[C@H]2CC(NCc3ccc(Cn4ccnc4)cc3)C[C@H]2C1 (stereo partly specified) | -7 | 0.66
48 | CN1CCOC2CN(Cc3ccc(Cl)c(F)c3)CC21 (stereo unspecified) | -10 | 1.85
49 | Cn1ncc(Cl)c1[C@@H]1CCCCCN1C(=O)c1ccccc1F | -19 | 1.68
50 | C[C@H](Nc1ccc2c(c1)OC1(CCCCC1)O2)C(=O)NC(N)=O | -2 | 0.3
51 | CCN=C(NCc1ccon1)N[C@H]1CCN(c2ccc(F)cc2F)C1 | -4 | 0.48
52 | Cc1ccc2[nH]c(-c3nc(CCN(C)C(=O)c4c(F)cccc4F)no3)cc2c1 | -9 | 1.7
53 | Cc1c(O)cccc1C(=O)N1CCn2nc(C(=O)N3CCN(C)CC3)cc2C1 | 0 | -0.05

Reference: ChEMBL document CHEMBL4888484, “Replenishing the malaria drug discovery pipeline: Screening and hit evaluation of the MMV Hit Generation Library 1 (HGL1) against asexual blood stage Plasmodium falciparum ,using a nano luciferase reporter read-out” (2022)
